# Out of some 350,000 compounds screened, about 9,900 (2.8%) were called active. The inconclusive results got no clear call from the source; some entries with a clear call stand among them for comparison. Calls come from the whole dose curve; as a rule, active = well fitted activation curve with a large enough effect; inconclusive = small, poorly fitted or top-dose-only effect; inactive = no such curve, though single readings can be large or run the other way. No potency is given beside an inconclusive call; the fits are too rough.
# Test: A quantitative high throughput screen for small molecules that induce DNA re-replication in MCF 10a normal breast cells. For activity, positive = re-replication: % of control where 0% means no effect. Note: nearly all actives have a fitted effect of over 50% in size.
# Details: MCF 10A DNA re-replication, Hoechst nuclear intensity, 48 h; activity, positive = re-replication: at 46.1 µM (top of the series)
# Potency is the fitted concentration of half-maximal effect; tags give direction and shape of the fitted curve.
SMILES,Potency,"activity, positive = re-replication"
Cc1oc(-c2ccccc2Cl)nc1CN1C(=O)CN=C(c2ccccc2)c2ccccc21,"inconclusive [activator, single point]",
O=C(CN1CCCCC1)NNC(=O)c1cccc(Br)c1,,inactive: -34.3%
Cc1cccc(-n2c(/C=C/c3ccc([N+](=O)[O-])o3)nc3ccccc3c2=O)c1,active: 2.31 µM,
Cc1cccc(N2C(=O)NC(=O)/C(=C\c3cccn3-c3ccc(Cl)cc3)C2=O)c1,"inconclusive [activator, single point]",
COC(=O)C1=C(c2cc3ccccc3s2)C[C@@H]2CC[C@H]1N2C(=O)NCc1cccc2ccccc12,"inconclusive [activator, partial curve, poor fit]",
Cc1ccc(C2=NOC(C)(c3nnc(-c4ccccc4)o3)C2)cc1 (stereo not drawn),"inconclusive [activator, partial curve, poor fit]",
C[C@@H]1CC[C@H]2[C@@H](C)C(=O)O[C@@H]3O[C@@]4(C)CC[C@@H]1[C@]32OO4,,inactive: -13.7%
CCOc1ccc2nc(N=Nc3c(O)[nH]c(=S)[nH]c3=O)sc2c1,"inconclusive [activator, partial curve, poor fit]",
CCOc1ccccc1CN1C2CCC1CC(c1ccc(C)cc1)C2 (stereo not drawn),"inconclusive [activator, partial curve, poor fit]",
CC(=O)OO,,inactive: -2.84%
CCC1CN2CCc3cc(OC)c(OC)cc3C2CC1CC1NCCc2c1[nH]c1ccc(O)cc21 (stereo not drawn),,inconclusive: 48.1% [activator]
Cc1ccc(N2C(=O)NC(=O)/C(=C\c3ccoc3)C2=O)cc1,"inconclusive [activator, single point]",
CC[C@H]1CN2CCc3cc(OC)c(OC)cc3[C@@H]2C[C@@H]1C[C@H]1NCCc2cc(OC)c(OC)cc21,"inconclusive [activator, full curve, poor fit]",
CN1CCN(c2ccc([N+](=O)[O-])c(N3CCCCC3)c2)CC1,"inconclusive [activator, full curve, poor fit]",
Cc1ccc(NC(=O)c2ncn(CCCNCCN3CCOCC3)n2)cc1C,"inconclusive [activator, partial curve, poor fit]",
COC(=O)C(Cc1ccc(N(CCCl)CCCl)cc1)N=Cc1ccccc1O (stereo not drawn),active: 11.6 µM,
Cc1ccc(C(O)(c2ccc(C)c(C)c2)C2CN3CCC2CC3)cc1C (stereo not drawn),"inconclusive [activator, full curve, poor fit]",
COc1ccc(CCNCc2ccncc2)cc1,"inconclusive [activator, partial curve, poor fit]",

# Reference: PubChem BioAssay AID624296 (National Center for Advancing Translational Sciences (NCATS), 2012)
